Measured values: PubChem BioAssay AID493208 (National Center for Advancing Translational Sciences (NCATS), 2011)
Hit rate of the full screen: of about 44,000 compounds, about 340 (0.77%) were called active. About 5% were inconclusive and are not listed. Calls follow the shape of the dose curve; as a rule, active = well fitted inhibition curve with a large enough effect; inconclusive = small, poorly fitted or top-dose-only effect; inactive = flat fitted curve, though single readings scatter. The list shows a part of the results.

Assay: Acumen qHTS Assay for Inhibitors of the mTORC1 Signaling Pathway in MEF (Tsc2-/-, p53-/-) Cells: Sytravon; also: nearly all actives have a fitted effect of over 50% in size;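 as to activity change, negative = inhibition: plate controls were DMSO for no effect and rapamycin for full effect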
Details: phospho-rpS6 immunofluorescence/PI, 24 h; series mostly up to 38.3 µM; activity change, negative = inhibition: at the top concentration
Outline: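 Read-out: phospho-S6 Alexa-488 intensity over PI intensity per well, scored as % active cells using thresholds from rapamycin (7.5 nM) and DMSO controls. Tsc2-/-, p53-/- MEFs exposed to compound for 24 h; PI cell count recorded as viability.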
Potency is read from the fitted curve at half-maximal effect.

SMILES	activity change, negative = inhibition	Potency
CCC1CCCCN1C(=O)c1nn(-c2ccc(C)cc2)c(=O)c2c1c1ccccc1n2C (stereo unspecified)	inactive: 1.15%	
CCOc1ccc(CCNC(=O)c2cnc3sc(N4CCOCC4)nn3c2=O)cc1	inactive: 2.07%	
CCOc1ccc(C2C(=O)N(C3CCCCCC3)CC(=O)N2CCc2ccccc2)cc1OC (stereo unspecified)	inactive: 7.74%	
COc1ccccc1-c1ccnc2[nH]n(-c3ccccc3)c(=O)c12	inactive: -3.68%	
CCOc1ccc(C(=O)Nc2ccc(S(=O)(=O)N3CCCCC3c3cccnc3)cc2)cc1 (stereo unspecified)	inactive: -14.7%	
Cc1cccc(N2CCN(c3nc4ccccc4c(=O)n3-c3ccc(Cl)cc3)CC2)c1C	inactive: -2.22%	
Cc1ccc(C)c(S(=O)(=O)NCC(c2ccco2)S(=O)(=O)c2ccc(F)cc2)c1 (stereo unspecified)		active: 7.36 µM
Cc1ccc(N2CCN(C(=O)c3ccc4c(Cl)c5c(nc4c3)CCCC5)CC2)c(C)c1	inactive: -11.1%	
Cc1noc(C)c1S(=O)(=O)N(CC(=O)NCc1ccccc1Cl)c1ccc(C(C)C)cc1	inactive: -32.8%	
O=C(Nc1ccc(F)cc1F)c1c2c(nc3ccccc13)C(=O)N(C1CCCCC1)C2	inactive: -10.3%	
O=C(NCc1cccs1)C1CCN(C(=O)N2CCOc3ccccc32)CC1	inactive: -0.203%	
O=C(Nc1c(-c2ccccc2)nc2ccccn12)c1ccc(Br)cc1	inactive: 7.03%	
CCOC(=O)c1cc(OC(=O)c2ccc(Cl)cc2)n(-c2ccccc2)n1	inactive: -5.04%	
Cc1ccc(N(CC(=O)N2CCN(c3ccc(Cl)cc3)CC2)S(=O)(=O)c2c(C)noc2C)cc1	inactive: 1.52%	
COc1ccc(C2C(=O)N(C3CCCCC3)CC(=O)N2Cc2ccccc2Cl)cc1OC (stereo unspecified)	inactive: -8.94%	
COc1ccc(CN2COc3ccc4c(-c5ccc(OC)cc5)cc(=O)oc4c3C2)cc1	inactive: -1.27%	
CCc1ccc(-n2nc(C)c3c(C(=O)NCCc4ccc(OC)c(OC)c4)cc(C)nc32)cc1	inactive: 4.62%	
COc1ccc(CNC(=O)Cn2ncn3nc(-c4cccs4)cc3c2=O)cc1	inactive: 3.49%	
Cc1ccc(C)c(N2CCN(CCCNC(=O)Cn3ncc4c([nH]c5ccccc54)c3=O)CC2)c1	inactive: -12.7%	
COc1ccc(N2CCN(S(=O)(=O)CCNC(=O)c3ccc(C(F)(F)F)cc3)CC2)cc1	inactive: 0.011%	
CCCCCn1c(=O)[nH]c2cc(C(=O)NCc3ccc(OC)cc3)ccc2c1=O	inactive: -6.42%	

SMILES	activity change, negative = inhibition	Potency
CCOC(=O)c1ccc(NC(=O)CCS(=O)(=O)c2ccc3c(c2)oc(=O)n3C)cc1	inactive: 7.05%	
COc1ccccc1N(CC(=O)Nc1ccccc1F)S(C)(=O)=O	inactive: -9.52%	
CCCCN(CCCC)CCNC(=O)CN1C(=O)CSc2ccc(S(=O)(=O)N3CCCCC3)cc21	inactive: -0.856%	
Cc1cccc(CN2C(=O)CC(c3ccc(Cl)cc3)c3c(C)nn(-c4nc(C)cc(C)n4)c32)c1 (stereo unspecified)	inactive: -3.5%	
COc1ccc(C2NC(=O)c3c(sc4c3CCN(C)C4)N2)cc1O (stereo unspecified)	inactive: 1.46%	
CCCNc1nc(NCc2ccccc2OC)c2cnn(C)c2n1	inactive: 0%	
CCN(CCCNC(=O)c1cc2c(=O)[nH]c3ccc(C)cc3c2s1)c1ccc(C)cc1	inactive: 1.3%	
CCc1ccc(NC(=O)C(CC)n2nnc(C(=O)OC)c2C(=O)OC)cc1 (stereo unspecified)	inactive: 7.76%	
Cc1ccc(Cl)cc1N1CCN(S(=O)(=O)c2ccc3[nH]c4c(c3c2)CCCC4)CC1	inactive: -1.96%	
COc1ccccc1NC(=O)CN1C(=O)c2cccc3cccc1c23	inactive: -0.811%	
Cc1cccc(N2CCN(C(=O)C3CCN(S(=O)(=O)c4cn(C)cn4)CC3)CC2)c1C	inactive: 2.81%	
Cc1ccc(Cl)cc1Nc1nn2c(=O)c3ccc(C(=O)NCc4cccs4)cc3nc2s1	inactive: -1.19%	
COc1ccccc1NC(=O)C1CCN(S(=O)(=O)c2ccc3c(c2)oc(=O)n3C)CC1	inactive: 4.1%	
CCCN1C(=O)c2ccccc2CC1(C)C(=O)NC1CCCCC1 (stereo unspecified)	inactive: 0.413%	
Cc1ccc(NC(=O)N2CCN(c3nnc(C)c4c(C)n(-c5ccccc5)nc34)CC2)cc1Cl	inactive: -8.99%	
CCC(CO)Nc1ncnc2c1cnn2-c1ccc(C)cc1 (stereo unspecified)	inactive: 9.68%	
CCOc1ccccc1CNC(=O)c1cnc2sc(N3CCCC3)nn2c1=O	inactive: 4.27%	
CCOCCCn1c(SCC(=O)Nc2cccc(OC)c2)nc2ccccc2c1=O	inactive: 4.21%	
O=C(NCc1ccc2c(c1)OCO2)c1ccc2c(c1)N(Cc1ccc(F)cc1)C(=O)c1ccccc1S2=O (stereo unspecified)	inactive: -1.05%	
Cc1ccc2nc(N(Cc3cccnc3)C(=O)c3ccc4c(c3)OCCO4)sc2c1	inactive: 2.86%	
CCN(c1ccc(Cl)cc1)S(=O)(=O)c1nnc(NC(=O)C2CCCCC2)s1	inactive: -0.6%	

SMILES	activity change, negative = inhibition	Potency
CCOCCc1nn2c(=O)cc(COC(=O)c3cccs3)nc2s1	inactive: -2.58%	
Cc1cc(C)cc(-n2c(SCC(=O)NCC3CCCO3)nc3c([nH]c4ccccc43)c2=O)c1 (stereo unspecified)	inactive: -5.65%	
COc1ccc2c(c1)-c1nc(NC(=O)c3ccc(C)cc3)sc1CC2	inactive: -19.9%	
CCCC(=O)C1=C(c2ccc(C)c(C)c2)N(C(=O)CCC)n2c(CC)nnc2S1	inactive: -2.09%	
CC1CCN(C(=O)c2cc(-c3cccc(Cl)c3)on2)CC1	inactive: -2.16%	
COc1ccc(-c2noc(-c3ccc(NCCc4ccccc4)c([N+](=O)[O-])c3)n2)cc1OC	inactive: 2.94%	
O=C(Cn1ncc2c3ccccc3n(Cc3ccccc3)c2c1=O)Nc1ccccc1C(F)(F)F	inactive: -4.37%	
COc1ccc(OC)c(CNC(=O)CCCn2nc(C)c3c(C)n(-c4ccc(C)cc4)nc3c2=O)c1	inactive: 0.205%	
CC(C)c1ccc(NS(=O)(=O)c2ccc3[nH]cc(C(=O)N4CCCC4)c(=O)c3c2)cc1	inactive: -0.0537%	
CCn1ccc2cc(S(=O)(=O)N3CCCN(C(=O)Nc4cc(Cl)ccc4C)CC3)ccc21	inactive: -2.96%	
CCOc1ccc(NC(=O)Nc2ccc3snnc3c2)cc1	inactive: -4.11%	
COc1cccc(CNC(=O)Cc2c(C)c3c(cc(C)c4c(C)coc43)oc2=O)c1	inactive: 1.95%	
Cn1ccc2c(OCC(=O)NCc3ccccc3Cl)cccc2c1=O	inactive: -5.28%	
CC(=O)N1CCC2(CC1)OC(=O)C(C)=C2C(=O)NCc1ccc(Cl)cc1	inactive: 0.212%	
CCc1ccc(CNC(=O)c2ccc3nc(C(C)C)oc3c2)cc1	inactive: -1.5%	
Cc1nn(-c2nc(-c3ccc(F)cc3)cc(C(F)(F)F)n2)c(C)c1Cl	inactive: -4.76%	
COc1ccc(OC(C)c2nc3ccccc3[nH]2)cc1 (stereo unspecified)	inactive: -13%	
O=C(Nc1ccc2oc(-c3cccnc3)nc2c1)c1ccc(-c2ccccc2)o1	inactive: -17.4%	
COC(=O)c1ccc(Cl)cc1NC(=O)N(C)CCc1c(C)nn(C)c1C	inactive: 14.4%	
